Measured values as given in article PMC4911916.
Results are given in words; binding and its absence hold for the method and conditions named. Binding seen in cells or lysates may run through a third protein. Some results given as binding are weak or reduced against the parent protein; the word gives no strength.

By UniProt entry, the sequences of proteins in these tests, tags left out.
UniProt Q8NDV7: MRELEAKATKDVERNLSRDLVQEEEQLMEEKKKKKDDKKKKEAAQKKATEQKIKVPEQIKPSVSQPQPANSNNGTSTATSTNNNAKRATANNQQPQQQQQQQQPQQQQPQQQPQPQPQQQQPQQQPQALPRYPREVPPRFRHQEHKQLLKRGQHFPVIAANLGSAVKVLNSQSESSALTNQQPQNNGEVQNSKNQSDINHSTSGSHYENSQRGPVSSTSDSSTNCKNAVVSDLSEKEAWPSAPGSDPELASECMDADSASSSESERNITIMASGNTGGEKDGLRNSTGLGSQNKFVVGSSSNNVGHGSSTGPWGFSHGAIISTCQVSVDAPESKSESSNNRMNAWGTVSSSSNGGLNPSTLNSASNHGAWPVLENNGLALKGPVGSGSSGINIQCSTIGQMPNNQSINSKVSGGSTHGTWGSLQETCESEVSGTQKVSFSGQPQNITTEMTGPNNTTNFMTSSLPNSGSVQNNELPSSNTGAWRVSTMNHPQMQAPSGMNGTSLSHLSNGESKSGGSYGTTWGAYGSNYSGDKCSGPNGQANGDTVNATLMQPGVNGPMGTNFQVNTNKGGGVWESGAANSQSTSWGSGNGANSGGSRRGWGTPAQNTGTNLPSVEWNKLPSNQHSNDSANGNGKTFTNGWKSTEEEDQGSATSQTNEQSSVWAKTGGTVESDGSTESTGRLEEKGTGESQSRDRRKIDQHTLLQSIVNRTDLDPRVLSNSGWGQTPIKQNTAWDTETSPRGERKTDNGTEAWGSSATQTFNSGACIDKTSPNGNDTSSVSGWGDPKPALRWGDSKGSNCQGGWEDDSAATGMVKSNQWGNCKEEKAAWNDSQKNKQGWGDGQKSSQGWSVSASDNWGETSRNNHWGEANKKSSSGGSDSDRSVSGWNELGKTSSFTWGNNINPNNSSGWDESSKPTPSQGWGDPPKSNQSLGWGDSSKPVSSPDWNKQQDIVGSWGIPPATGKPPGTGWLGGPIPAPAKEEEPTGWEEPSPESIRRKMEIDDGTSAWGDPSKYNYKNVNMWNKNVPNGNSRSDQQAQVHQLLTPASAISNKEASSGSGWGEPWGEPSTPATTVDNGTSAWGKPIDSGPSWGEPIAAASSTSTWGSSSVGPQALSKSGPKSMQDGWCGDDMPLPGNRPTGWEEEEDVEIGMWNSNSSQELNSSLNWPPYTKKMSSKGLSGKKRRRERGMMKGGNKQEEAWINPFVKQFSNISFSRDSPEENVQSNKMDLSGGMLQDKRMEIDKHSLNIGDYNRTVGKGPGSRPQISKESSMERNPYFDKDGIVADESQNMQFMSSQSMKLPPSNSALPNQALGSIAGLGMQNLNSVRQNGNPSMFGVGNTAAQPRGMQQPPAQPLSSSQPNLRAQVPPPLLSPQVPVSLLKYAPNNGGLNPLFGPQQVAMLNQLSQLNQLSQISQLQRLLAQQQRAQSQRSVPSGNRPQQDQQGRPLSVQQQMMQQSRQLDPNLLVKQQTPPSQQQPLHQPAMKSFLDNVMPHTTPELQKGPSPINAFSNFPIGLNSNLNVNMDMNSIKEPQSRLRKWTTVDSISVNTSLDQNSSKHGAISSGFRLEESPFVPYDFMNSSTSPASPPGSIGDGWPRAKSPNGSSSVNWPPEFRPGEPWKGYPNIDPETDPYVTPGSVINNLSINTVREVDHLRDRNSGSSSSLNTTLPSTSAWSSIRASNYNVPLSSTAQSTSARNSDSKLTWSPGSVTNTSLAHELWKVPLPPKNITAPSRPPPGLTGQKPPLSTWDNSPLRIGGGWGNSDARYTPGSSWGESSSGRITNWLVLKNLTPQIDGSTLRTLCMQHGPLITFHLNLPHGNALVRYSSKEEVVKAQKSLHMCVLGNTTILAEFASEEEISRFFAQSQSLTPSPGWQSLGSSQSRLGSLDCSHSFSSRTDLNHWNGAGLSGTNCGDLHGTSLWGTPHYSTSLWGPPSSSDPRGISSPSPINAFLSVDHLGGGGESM
UniProt Q14974: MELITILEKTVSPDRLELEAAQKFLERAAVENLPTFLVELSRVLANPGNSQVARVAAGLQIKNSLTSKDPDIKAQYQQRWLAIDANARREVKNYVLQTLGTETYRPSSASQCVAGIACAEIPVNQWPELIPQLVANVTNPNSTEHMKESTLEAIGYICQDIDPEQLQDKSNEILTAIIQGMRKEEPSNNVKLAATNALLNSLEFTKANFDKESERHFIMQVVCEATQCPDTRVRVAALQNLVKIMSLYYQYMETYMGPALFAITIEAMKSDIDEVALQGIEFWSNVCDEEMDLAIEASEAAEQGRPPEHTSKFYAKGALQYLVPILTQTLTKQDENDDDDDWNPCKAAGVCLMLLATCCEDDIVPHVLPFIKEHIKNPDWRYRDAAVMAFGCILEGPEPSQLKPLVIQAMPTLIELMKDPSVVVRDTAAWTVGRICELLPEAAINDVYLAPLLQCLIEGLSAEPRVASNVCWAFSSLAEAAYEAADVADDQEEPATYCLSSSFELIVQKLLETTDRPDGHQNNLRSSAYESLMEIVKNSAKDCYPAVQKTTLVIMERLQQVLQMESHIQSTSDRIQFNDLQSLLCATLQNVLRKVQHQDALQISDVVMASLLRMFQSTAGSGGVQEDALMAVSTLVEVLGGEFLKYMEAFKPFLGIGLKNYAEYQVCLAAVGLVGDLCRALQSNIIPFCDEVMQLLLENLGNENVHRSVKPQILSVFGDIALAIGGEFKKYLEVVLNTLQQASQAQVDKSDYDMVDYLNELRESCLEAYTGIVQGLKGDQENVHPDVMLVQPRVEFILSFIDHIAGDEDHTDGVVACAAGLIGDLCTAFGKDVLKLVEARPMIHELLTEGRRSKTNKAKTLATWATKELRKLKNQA
UniProt P26599: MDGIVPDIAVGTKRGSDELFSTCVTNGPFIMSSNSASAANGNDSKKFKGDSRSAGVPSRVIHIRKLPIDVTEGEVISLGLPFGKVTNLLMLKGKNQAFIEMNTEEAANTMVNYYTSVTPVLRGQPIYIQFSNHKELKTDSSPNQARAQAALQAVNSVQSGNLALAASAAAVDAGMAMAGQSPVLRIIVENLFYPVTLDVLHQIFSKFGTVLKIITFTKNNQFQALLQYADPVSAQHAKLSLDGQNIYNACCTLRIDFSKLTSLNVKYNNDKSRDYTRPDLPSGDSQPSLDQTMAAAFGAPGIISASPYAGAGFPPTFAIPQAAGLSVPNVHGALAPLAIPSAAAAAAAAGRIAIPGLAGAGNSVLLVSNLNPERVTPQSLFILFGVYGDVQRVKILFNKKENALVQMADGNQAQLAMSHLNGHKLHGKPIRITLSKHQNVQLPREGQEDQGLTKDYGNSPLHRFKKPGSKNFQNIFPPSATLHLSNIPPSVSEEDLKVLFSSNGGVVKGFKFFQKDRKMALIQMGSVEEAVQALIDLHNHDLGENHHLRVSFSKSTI
UniProt Q9UPY3: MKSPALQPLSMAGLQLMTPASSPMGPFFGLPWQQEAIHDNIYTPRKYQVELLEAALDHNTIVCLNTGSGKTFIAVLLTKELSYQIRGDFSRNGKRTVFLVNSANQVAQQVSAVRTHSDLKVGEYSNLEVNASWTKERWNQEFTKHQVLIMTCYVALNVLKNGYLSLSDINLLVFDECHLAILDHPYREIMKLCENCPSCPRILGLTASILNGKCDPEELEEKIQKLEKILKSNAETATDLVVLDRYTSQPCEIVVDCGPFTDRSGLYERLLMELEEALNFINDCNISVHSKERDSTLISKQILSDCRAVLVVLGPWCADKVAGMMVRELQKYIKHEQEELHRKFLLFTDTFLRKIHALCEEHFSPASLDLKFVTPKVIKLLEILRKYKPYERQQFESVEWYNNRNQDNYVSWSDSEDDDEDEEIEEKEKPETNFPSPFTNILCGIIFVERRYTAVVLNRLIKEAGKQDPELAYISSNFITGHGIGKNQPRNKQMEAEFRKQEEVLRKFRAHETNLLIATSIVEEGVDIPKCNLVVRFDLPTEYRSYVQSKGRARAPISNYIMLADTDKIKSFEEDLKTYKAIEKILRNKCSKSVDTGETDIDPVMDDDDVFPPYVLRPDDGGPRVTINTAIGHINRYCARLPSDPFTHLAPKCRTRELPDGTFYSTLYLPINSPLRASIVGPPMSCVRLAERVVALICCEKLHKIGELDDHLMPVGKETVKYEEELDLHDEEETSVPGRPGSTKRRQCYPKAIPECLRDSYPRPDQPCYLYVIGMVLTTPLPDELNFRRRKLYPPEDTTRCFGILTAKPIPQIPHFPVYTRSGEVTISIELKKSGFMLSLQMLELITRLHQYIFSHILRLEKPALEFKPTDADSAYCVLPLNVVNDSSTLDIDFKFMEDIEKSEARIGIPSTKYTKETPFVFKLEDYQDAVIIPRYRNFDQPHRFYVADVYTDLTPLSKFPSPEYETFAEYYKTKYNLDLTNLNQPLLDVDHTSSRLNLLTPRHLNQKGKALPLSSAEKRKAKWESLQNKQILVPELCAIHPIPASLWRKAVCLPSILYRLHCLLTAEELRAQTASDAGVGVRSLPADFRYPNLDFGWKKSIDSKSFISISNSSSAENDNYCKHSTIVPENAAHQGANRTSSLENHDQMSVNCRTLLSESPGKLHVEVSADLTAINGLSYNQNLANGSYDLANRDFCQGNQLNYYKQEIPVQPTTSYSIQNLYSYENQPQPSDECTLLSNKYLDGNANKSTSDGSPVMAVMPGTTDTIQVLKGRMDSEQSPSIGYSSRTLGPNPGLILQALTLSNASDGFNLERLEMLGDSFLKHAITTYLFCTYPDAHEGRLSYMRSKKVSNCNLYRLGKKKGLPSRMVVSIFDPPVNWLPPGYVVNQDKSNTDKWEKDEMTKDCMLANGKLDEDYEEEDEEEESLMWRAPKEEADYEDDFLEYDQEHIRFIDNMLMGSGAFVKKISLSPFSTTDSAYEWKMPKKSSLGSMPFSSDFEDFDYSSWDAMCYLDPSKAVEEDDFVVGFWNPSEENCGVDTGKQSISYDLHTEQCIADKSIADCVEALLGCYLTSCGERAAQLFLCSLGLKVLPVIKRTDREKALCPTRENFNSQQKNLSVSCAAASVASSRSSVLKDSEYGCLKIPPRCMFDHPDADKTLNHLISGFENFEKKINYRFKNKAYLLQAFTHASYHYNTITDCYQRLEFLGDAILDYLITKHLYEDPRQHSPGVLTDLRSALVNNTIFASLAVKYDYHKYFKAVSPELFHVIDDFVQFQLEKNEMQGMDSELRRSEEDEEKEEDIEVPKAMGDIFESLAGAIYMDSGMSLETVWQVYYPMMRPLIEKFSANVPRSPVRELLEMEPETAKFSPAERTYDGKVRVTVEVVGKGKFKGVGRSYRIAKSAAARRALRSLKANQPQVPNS

Each substance was assayed against Flag-HA-tagged AGO2 (human) (UniProt Q9UKV8) (assay: co-IP; anti-Flag resin IP of Flag-AGO2 from nuclear extract of the stable line versus Flag IP from T47D cells, Western blot of partners; 6 washes in IP300 buffer).

Substance | binding
AGO3 (from UniProt Q9H9G7 1-860) | binds

These substances were tested against endogenous Argonaute 2 (AGO2) (human (endogenous in T47D)) (UniProt Q9UKV8) (assay: co-IP; anti-AGO2 antibody IP from T47D nuclear extract versus IgG control, Western blot of partners; 300 µg protein, 4°C, 6 washes in IP300 buffer (300 mM NaCl, 0.05% NP-40)).

Substance | binding
TNRC6A (GW182) (from UniProt Q8NDV7 1-1962) | binds
AGO3 (from UniProt Q9H9G7 1-860) | binds
KPNB1 (from UniProt Q14974 1-876) | no binding
PTBP1 (from UniProt P26599 1-557) | no binding
Dicer (from UniProt Q9UPY3 1-1922) | binds
